# Experimental data as given in the RNAGym collection of RNA variant scans (doi:10.1073/pnas.2313332121).
# This sample is rich in variants without activity.
# B1: TPR 5TU (parent)
# chain: GGAUCUUCUCGAUCUAACAAAAAAGACAAAUCUGCCACAAAGCUUGAGAGCAUCUUCGGAUGCAGAGGCGGCAGCCUUCGGUGGCGCGAUAGCGCCAACGUUCUCAACUAUGACACGCAAAACGCGUGCUCCGUUGAAUGGAGUUUAUCAUG
# Variants of: B1
# Assay: polymerase ribozyme fitness, log enrichment relative to wild type (log ratio); higher = more active; in vitro selection for triplet polymerase activity
# How it was run: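 Input and output libraries were sequenced on Illumina after a single in vitro selection round, run in triplicate on PCR-built, transcribed mutant libraries of each subunit of a heterodimeric triplet polymerase ribozyme. Selection annealed libraries to a biotinylated primer, the partner subunit and triplets, incubated them frozen at −7 °C, then gel-excised extended constructs for streptavidin-bead capture and RT-PCR. Genotypes with ≥10 input reads and ≥1 read per output were kept. Fitness is the logarithm, taken in base 2, of genotype enrichment divided by wild-type enrichment, using inverse-variance-weighted replicate averages.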
row,Variant,polymerase ribozyme fitness (log ratio)
1,GGAUCUUCUCGAUCUAACAAAAAAGACAAAUCUGCCACAAAGCUUGAGACCAUCUUCGGCUGCAGAGGCGUCAGCCUUCGGUGGCGCGAUAGCGCGAACGUUCUCAACUAUGACACGCAAAACGCGUGCUCCGUUGAAUGGAGUUUAUCAUA,≤ -4.2
2,GGAUCUUCUCGAUCUAACAAAAAAGACAAAUCUGCCACAAAGCUUGAGAACAUCUUCGGAUGCAGAGGCGGCAGCCUUCGGUGGCGCUAUAGCGCCAACGUUCUCAACUAUGACACGCAAAACGCGUGCUCCCUUGAAUGGAGUUUAUCAUG,≤ -4.2
3,GGAUCUUCUCGAUCUAACAAAAAAGACAAAUCUGCCACAAAGCUUGAGAACAUCUUCGGUUGCAGAGGCGGCAGCCUUCGGGGGGGCGAUAGCGCCAAAGUUCUCAUCUAUGACACGCAAAACGCGUGCUCCGUUGAAUGGAGUUUAUCAUG,≤ -4.2
4,GGAUCUUCUCGAUCUAACAAAAAAGACAAAUCUGCCACAAAGCUUGAGACCAUCUUCGGAUGCAGAGGCGGCAGCCUUCGGUGGCGCGAUCGCGCCAAAGUUCUCAACUAUGACACGAAAAACGCGUGCUCCGUUGAAUGGAAUUUAUCAUG,≤ -4.2
5,GGAUCUUCUCGAUCUAACAAAAAAGACAAAUCUGCCACAAAGCUUGAGAACAUCUUCGGAUGCAGAGGCAGCAGACUUCGGUGGCGCGAUAGCGCUAACGUUCUCUACUAUGACACGCAAAACGCGUGCUCCGUUGAAUGGAGUUUAUCAUG,≤ -4.2
6,GGAUCUUCUCGAUCUAACAAAAAAGACAAAUCUGCCACAAAGCUUGAGAACAUCUUCGGAUGCAGAGGCGGCAGCCUUCGGUGGCGCGAUAGCGGCUACGUUCUCAACUAUGACACGCAAAACGCGUGCUCCGUUGACCGGAGUUUAUCAUG,≤ -4.2
7,GGAUCUUCUCGAUCUAACAAAAAAGACAAAUCUGCCACAAAGCUUGAGACCAUCUUCGGAUGCAGAGGCGGCAGCCUUCGGUGGCGCGAUAGCGCCUUCGUUCUCAACUAUGACACGCAAAACGCGUGCUCCGUUGGAUGGAGUUUAUCAUG,≤ -4.2
8,GGAUCUUCUCGAUCUAACAAAAAAGACAAAUCUGCCACAAAGCUUGAGACCAUCUUCGGAUGCAGAGGCGGCAGGCUUCGGUGCCGCGAUAGCGCCAACGUUCUCAACUAUGACACGCAAAACGCGUACUCCGUUGAAUGGAGUUUAUCAUG,≤ -4.2
9,GGAUCUUCUCGAUCUAACAAAAAAGACAAAUCUGCCACAAAGCUUGAGACCAUCUUCGGAUGCAGCGGCGGCAGCCUUCGGGGGCCCGAUAGCGCCAACGUUCUCAACUAUGAAACGCAAAACGCGUGCUCCGUUGCUUGGAGUUUAUCAUG,≤ -4.2
10,GGAUCUUCUCGAUCUAACAAAAAAGACAAAUCUGCCACAAAGCUUGAGACCAUGUUCAGAUGCUGCGUCGGCAGCCUUCGGUGGCGCGAUCGCGCCAACGUUCUCAACUAUGACACGCAAAACGCGUGCUCCGUUGAAUGGAGUUUAUCAUG,≤ -4.2
11,GGAUCUUCUCGAUCUAACAAAAAAGACAAAUCUGCCACAAAGCUUGAGAACAUCUUCGGAUGCAGAGCCGGCAGCCUUUGGUGGCGCGAUAUCGCCUACGUUCUCAACUAUGACACGCAAAACGCGUGCUCCGUUGAAUGGAGUUUAUCAUG,≤ -4.2
12,GGAUCUUCUCGAUCUAACAAAAAAGACAAAUCUGCCACAAAGCUUGAGACCAUCUUCGGAUGCAGAGGCGGAAGCCUUCGGUGGCGCGAUAGCGCCAACGUUCUCAACUAUGAUACGCAAAACGCGUGCUCCGGUGAAUGGAGUUUAACAUG,≤ -4.2
13,GGAUCUUCUCGAUCUAACAAAAAAGACAAAUCUGCCACAAAGCUUGAGAACAUGUUCGGAUGCAGAGGCGGCAGCCUUCGGUUGCGCGAUAGCGCUAACGUUCUCAACUCUGACACGCAAAACGCGUGCUCCGUUGAAUGGAGUUUAUCAUG,≤ -4.2
14,GGAUCUUCUCGAUCUAACAAAAAAGACAAAUCUGCCACAAAGCUUGAGUGCAUCUUCGGAUGCAGAGGCGGCAGCCUUCGGUGGCGCGAUAGCGCCAACGUGCUCAACUAUGACACGCAAAACGCGUGCUCCGUUGAAUGGAGUUUCGCAUG,≤ -4.2
15,GGAUCUUCUCGAUCUAACAAAAAAGACAAAUCUGCCACAAAGCUUGAGAAAAUCUUCGGAUGCAGAGGCGGCAGCCUUCCAUGGCGCGAUAGCGCCAACGUUCUCAACUAUGACACGCAAAACGCGUGCUCCGUUGAAAGGAGUUUAUCAUA,≤ -4.2
16,GGAUCUUCUCGAUCUAACAAAAAAGACAAAUCUGCCACAAAGCUUGAGACCAUCUUCGGAUGCAGAGGCGGCAGCCUUCGGUGGCGGGAUAGCGCCAACGUUCUCAACUAUGACACGCAAUACGCGUGCUCCGUUGAAUGGAGUUUAUCAUG,≤ -4.2
17,GGAUCUUCUCGAUCUAACAAAAAAGACAAAUCUGCCACAAAGCUUGAGAACAUCUUCGGAUGCAGAGGCGGCAGCGUUCGGUGGGGCGAUAGCGCCAACGUUCUCAACUAUGACACGCAAAACGCGUGCUCCGUUGAAUGGAGUUUAUCAUG,≤ -4.2
18,GGAUCUUCUCGAUCUAACAAAAAAGACAAAUCUGCCACAAAGCUUGAGAACAUCUUCGGAUGCAGAGGCGGCAGCCUUCGGUGGCGCGAUAGCGCCAACGUUCUCAAGUAUGACACGCAAAACGCGUGCUCCGUUGAAUGUAGUUUAUCGUG,≤ -4.2
19,GGAUCUUCUCGAUCUAACAAAAAAGACAAAUCUGCCACAAAGCUUGAGACCGUCUUCGGAUGCAGAGGCGGCAGCCUUCGGUGGCGCUAUUGCGCCAACGUCCUCAACUAUGACACGCAAAACGCGUGCUCCAUUGAAUGGAGUUUAUCAUG,≤ -4.2

row,Variant,polymerase ribozyme fitness (log ratio)
1,GGAUCUUCUCGAUCUAACAAAAAAGACAAAUCUGCCACAAAGCUUGAGACCAUCUUCGGAUGCAGAGGCGGCAGCCUUCGGUGGCGCGAUAGCGCCAACGUUCUCAACUAUGACACGCAAAACGCGUGCUCCGUUGGAUGGAGUUGAACAUG,≤ -4.2
2,GGAUCUUCUCGAUCUAACAAAAAAGACAAAUCUGCCACAAAGCUUGAGAACGUCUUCGGAUGCAGAGGCGGCAGCCUUCGGUGGCGCGAUAGGGCCAACGUUCUCAACUAUGACACGCAAAACGCGUGCUCCGUUGAAUGGAGUUUAACAUG,≤ -4.2
3,GGAUCUUCUCGAUCUAACAAAAAAGACAAAUCUGCCACAAAGCUUGAGACCAUUUUCGGAUGCAGAGGCGGCAGCCUUCGAUGGCGCCAUAGCGCCAACGUUCACAAGUAUGACACGCAAAACGCGUGCUCCGUUGAAUGAAGUUUAUCAUG,≤ -4.2
4,GGAUCUUCUCGAUCUAACAAAAAAGACAAAUCUGCCACAAAGCUUGAGAAUAUCUUCGUCUGCAGAGGCGGCAGCCUUCGGUGGUGCGAUAGAGCCAACGUUCUCAACUAUGACACGCAAAACGCGUGCUCCGUUGAAUGGAGUUUAUAAUG,≤ -4.2
5,GGAUCUUCUCGAUCUAACAAAAAAGACAAAUCUGCCACAAAGCUUGAGAACAUCUUCGGAUGCAGAGGCGGCAGCUUUCGGUGGGGCGAUAGCGCCAACGUUCUCUACUAUGACACGCGAAACGCGUGCUCCGUUUAAUGGAGUUUAUCAUG,≤ -4.2
6,GGAUCUUCUCGAUCUAACAAAAAAGACAAAUCUGCCACAAAGCUUGAGAACAUCUCCGGAUGCAGAGGCGGCAGCCUUCGGUGGCGCGAUACCGCCAACGUUCUCCACUAUGACACGCAGAACGCGUGCUCCGUUGAAUGGAGUUUAUCAUG,≤ -4.2
7,GGAUCUUCUCGAUCUAACAAAAAAGACAAAUCUGCCACAAAGCUUGAGACCAUCUUCGGAUGCAGAGGCGGCAGCCUUCGGUGGCGCGGUAGCGCCAACGUUCUCAACUGUGACACGCAAUACGCGUGCUCCGUUGAAUGGAGUUUAUCAUG,≤ -4.2
8,GGAUCUUCUCGAUCUAACAAAAAAGACAAAUCUGCCACAAAGCUUGAGAACAUCAUCGGAUGCAGAGGCGGCAGCCUUCGGUGGGGCGAUAGCGCCAACGUUCUGAACUAUGACACGCAAAACGCGUGCUCGGUAGAAUGGAGUUUAUCAUG,≤ -4.2
9,GGAUCUUCUCGAUCUAACAAAAAAGACAAAUCUGCCACAAAGCUUGAGAACAUCUGCGGAUGCAGAGGCGGCAGCCUUCGGUUGCGCGAUAGCGCCAACGUUCUCAACUAUGUCACGCAAAACGCGUGCUCCGUUGAAUGGCGUUUAUCAUG,≤ -4.2
10,GGAUCUUCUCGAUCUAACAAAAAAGACAAAUCUGCCACAAAGCUUGAGACCAUCUUUGGAUGCAGAGGCGGCAGCUUUCGGUUGCGCGAUAGCGCCAACGUUCUCAACUAUGACACGCAAAACGCGUGCUCCGUUGAAUGGAGUUUAUCAUG,≤ -4.2
11,GGAUCUUCUCGAUCUAACAAAAAAGACAAAUCUGCCACAAAGCUUGAGAACAGCUUCGGAUGCAGAGGCGGCAGCCUUCGGUGGCGCGAUAGGGCCAACGUUCUCAACUAUGACACGCAAAACGCGUGCUCCGUUGAAUGGAGUUUAUCAUG,≤ -4.2
12,GGAUCUUCUCGAUCUAACAAAAAAGACAAAUCUGCCACAAAGCUUGAGAACAUCUUCGGAUGCAGAGGCGGCAGCCUUCGGUGGCGAGAUGGCGCCAACGUUCUCAACUAUGACACGCAAAACGCGUGCUCCGUUGAAUGGAGUUUAUCAUG,≤ -4.2
13,GGAUCUUCUCGAUCUAACAAAAAAGACAAAUCUGCCACAAAGCUUGAGUGCAUCUUCGGAUGCAGAGGCGGCAGCCUUCGGGGGGGCGAUAGCUCCAACGUUCUCAACUAUGACACGCAAUACGCGUGCUCCGUUGAGUGGAGUUUAUCAUG,≤ -4.2
14,GGAUCUUCUCGAUCUAACAAAAAAGACAAAUCUGCCACAAAGCUUGAGAACAUCUUCGGAUGCAGAGGCGGCAGCCUUCGGUGGCGCGAUAGCGCCAACGGUCUCGACUAUGACACGCAAAACGCGUGCUCCGUUGAAUGGAGUUCACCAUG,≤ -4.2
15,GGAUCUUCUCGAUCUAACAAAAAAGACAAAUCUGCCACAAAGCUUGAGUGCAUCUACGGAUGCAGAGGCGGCAGCCUUCGGUGUGGGGAUAGCGCCAACGUUCUCAACUUAGACACGCAAAACGCGUGCUACGUUGAAUGGAGUUUAUCAUG,≤ -4.2
16,GGAUCUUCUCGAUCUAACAAAAAAGACAAAUCUGCCACAAAGCUUGAGACCGUCUUCAGAUGCAGAGGCGGCAGCCUUCGGAGGCGCGAUAGCGCUAACGUUCUCAACUAUGACACGCAAAACGCGUGCUCCGUUGAAUGCAGUUUAUCAUG,≤ -4.2
17,GGAUCUUCUCGAUCUAACAAAAAAGACAAAUCUGCCACAAAGCUUGAGAACAUCUUCGGAUGCAGAGGCGGCAGCCUCCGGUGGCGCGAUAGCGUCAACGUUCUGAACUAUGACACGCAAAACGCGUGCUCCGUUGAAUGGAGUUGAUCAUG,≤ -4.2
18,GGAUCUUCUCGAUCUAACAAAAAAGACAAAUCUGCCACAAAGCUUGAGAACAUCUUCGGUUGAAGAGGCGGCAGCCUUCGGUGUCGCGAUAGCGCCAACGUUCUCAACUAAGAUACGCAAAACGCGUGCUCCGUUGAAUGGAGUUUAUCAUG,≤ -4.2
19,GGAUCUUCUCGAUCUAACAAAAAAGACAAAUCUGCCACAAAGCUUGAGACCAUCUUCGGAUGCAGUGGCGGCAGCCUUCGGUGGCGCGAUAGCGCCAACGUUCUCAACUAUGACACGCAAAACGCGUGCUCCGUUGAAUGGAGUUUAUCAUG,≤ -4.2
